The record followed here is the RNAGym collection of RNA variant scans (doi:10.1093/nar/gkz1192).

To fix the notation:
B1: CPEB3 Ribozyme (parent)
chain: UAACAGGGGGCCACAGCAGAAGCGUUCACGUCGCAGCCCCUGUCAGAUUCUGGUGAAUCUGCGAAUUCUGCUGUAUAUCUC

The source gives no read counts; variants with many changes may rest on few reads.

In this series the parent is B1. Put plainly: self-cleavage, relative activity (ratio to wild type); higher = more cleavage; in vitro, sequencing. Summed up: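 Relative activity was defined as the cleaved/total read fraction for a variant divided by the same fraction for the unmutated ribozyme. CPEB3 self-cleaving ribozyme libraries were made by rounds of error-prone PCR, barcoded, and transcribed in vitro with T7 RNA polymerase for 5 hours at 37°C, and cleavage ran through transcription plus a 15 min DNase I step before EDTA. Illumina sequencing of template-switched reverse transcripts gave the reads, and DNA sequencing mapped the barcodes. Averages come from three batches, using variants with at least 5 reads.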
Regarding UAACAGGGGGCCCCAGCAGAAGCGUUCUCGUCGCAGCCCCUGUCAGAUUCUGGUGAAUCUGCGAAUUCUGCCGUAUUUCUC [A13C A28U U72C A77U], the self-cleavage turned out to be 0.53.
UAACAGGGGGCUACAGCAGAAGCGUUCACGUCGCAGCCCCUGUCAGAUUCUGGCGAAUCCGCGAAUUCUGCUGUAUAUCUC [C12U U54C U60C]: the self-cleavage is 0.46.
On to UAACAGGGGGCCCCAGCUGAAGCGUUCACGUCGCAGCCCCUGUCAGAUUCUGGUGAAUCUGCGUAUUCUGCUGUAUAUCUC [A13C A18U A64U], for which the self-cleavage was determined as 0.21.
In the case of UAACAGGGGGCUAUAGCAGGAGCGUACACGUCGCAGCCCCUGUCAGAUUCUGGUGAAUCUGCGAAUUCUGCUGUAUAUCUC [C12U C14U A20G U26A], the self-cleavage is 1.21.
On to UAACAGGGGGCUACAGCAGAGGCGUUCACGUCGCAGCCCCUGUCAGAUUCUGGUGAAUCUGCGAAUUCUGCUGUAUACCUC [C12U A21G U78C], for which the self-cleavage turned out to be 0.85.
On to UAACAGGGGGCUACAGCAGAAGCGCUCACGUCGCAGCCCCUGUCAGAUUCUGGUGGAUCUGCGAAUUCUGCUAUAUAUCUC [C12U U25C A56G G73A], for which the self-cleavage is 0.23.
UAACAGGGGGCUACAGCAGAAGCGCUCACGUCGCAGCCCCUGUCAGAUUCAGGUGAAUCUGCGAACUCUGCUGUAUAUCUC [C12U U25C U51A U66C]: the self-cleavage was 0.16.
Consider UAACAGGGGGCUACAGCAGAAGCGUUCACGUCGCAGCCCCCGCCAGAUUCUGGUGAAUCUGCGAAUUCUGCUGUAUAACUC [C12U U41C U43C U78A], for which the self-cleavage was determined as 1.02.
Take UAACAGGGGGCCCCAGCUGAAGCGUUCUCGUCGCAGCCCCUGUCAGAUUCAGGUGAAUCUGCGAAUUCCGCUGUAUGUCUC [A13C A18U A28U U51A U69C A77G]: the self-cleavage is 0.27.
As for UAACAGGGGGCUACAGCAGAAGAGAUCCCGUCGCAGCCCCCGUCAGGUUCUGGUGAAUCUGCGAAUCCUGCUGUAUAUCUC [C12U C23A U25A A28C U41C A47G U67C], the figure is 0.05.
Regarding UAACAGGGGGCUACAGCAGAAGCGUUCACGACGCAGCCCCUGUCAGAUUCUGGUGAAUCUGCGAAUUCUGCUGUACAUCUC [C12U U31A U76C], the self-cleavage came to 1.09.
As to UAACAGGGGGCCCCAGCAGGAGCGUUCACGUCGCAGCCCCUGUCAGAUUCUGGUGGAUCUGCGAAUUCUGCUGUAUAUCUC [A13C A20G A56G], the self-cleavage turned out to be 0.46.
As for UAACAGGGGGCUACAGCAGAAUCGUUCACGUCGCAGCCCCUGUCAGAUUCUGGUGAAUCUGCGAAUUCUGCUGUGUAUCUC [C12U G22U A75G], the figure is 0.51; as for UAACAGGGGGCUACAGCAGAAGCGUUCACGUCGCAGCCCCUGUCAGAUUCUGGUGAAUCUGCGGGUUCUGCUGUAUAUCUC [C12U A64G A65G], 0.21; as for UAACAGGGGGCUACAGCAGAAGCGCUCACGUCGCAGCCCCUGUCUGAUUCUGGUGAAUCUGCGAAUUCUGCUGUAUUUCUC [C12U U25C A45U A77U], 0.04.
For the variant UAACAGGGGGCUACAGCAGAAGCGUUCACGUCGCAGCCCCUGUCAGAUUCUGGUGAAUCUGCGAAUUCUGCUGAAUAUCCC [C12U U74A U80C], the self-cleavage turned out to be 1.48.
As for UAACAGGGGGCUACAGCAGAAGCGUUCACAUCGCAGCCCCUGUCAGAUUCUGGUGAGUCUGCGAAUUCUGCUGUAUAUCUC [C12U G30A A57G], the figure is 0.44.
Regarding UAACAGGGGGCUACAGCAGAAGCGUCCACGACGCAGCCCCUGUCAGCUUCUGGUGAAUCUGCGAAUUCUGCUGUAUAUCCC [C12U U26C U31A A47C U80C], the self-cleavage was 0.13.
As for UAACAGGGGGCUACAGCAGAAGCGUUCACGCCGCAGCCCCUGUCAGAUUCUGGUGAAUCUGCGAUUUAUGCUGUAUAUCUC [C12U U31C A65U C68A], the figure is 0.11; as for UAACAGGGGGCUACAGCAGAAGCGUUCACGUCGCUGCCCCAGUCAGAUUCUGGUGAAUCCGCGAAUUCUGCAGUAUAUCUC [C12U A35U U41A U60C U72A], 0.07; as for UAACAGGGGGCUACAGCAGAAGCGUUCACGUCGCAGCCCCUGUCAGGUUCUGGUGAAUCUGCGAAUUCUGCCGUAUAUCUC [C12U A47G U72C], 1.19.
As for UAACAGGGGGCUACAGCAGAAGCGUUCACGUCGCAGCCCCUGUCAGAUUCUGGUGAGUCUGCGAAUUCUGCUGUAUACCUC [C12U A57G U78C], the figure is 1.02; as for UAACAGGGGGCUACAGCAGUAGCGUUCACGUCGCAGCCCCUGUCAGAUUCUGGUGAAUCGGCGAAUUCUGCUGUAUAUCUC [C12U A20U U60G], 0.14.
With UAACAGGGGGCUACAGCAGAAGCGUUCACGUCGCAGCCCCAGUCAGAUUCUGGUGAUUCCGCGAAUUCUGCCGUAUAUCUC [C12U U41A A57U U60C U72C], the self-cleavage came to 0.1.
To UAACAGGGGGCUACAGCAAAAGCGUUCACGCUGCAGCCCCUGCCAGAUUCUGGUAGAUCUGCGAAUUCUGCUGUAUAUCUC [C12U G19A U31C C32U U43C G55A A56G] belongs 0.04; to UAACAGGGGGCUACAGCAGAAGCGUUCACGUCGCAGCCCCAGUCAGACUCUGGUGAAUCUGCGAAUUCUGCUGUAUAUCUC [C12U U41A U48C], 0.07; to UAACAGGGGGCCCCAGCGGAAGCGUUCACGUCGCGGCCCCUGUCAGAUUCUGGAGACUCUGCGAAUUCUGCUGUACAUCUC [A13C A18G A35G U54A A57C U76C], 0.99.
Turning to UAACAGGGGGCUACAGCAGAAGCGUUCACGUCGCAGCCCUUGUCUGACCCUGGUGAAUCUGCGAAUUCUGCUGUAUAUCUC [C12U C40U A45U U48C U49C], the self-cleavage is 0.12.
For the variant UAACAGGGGGCUACAGCAGAAGCGUUCACGUCGCAGCCCCUGUCAGGUUCUGAUGAAUCGGCGAAUUCUGCUGUGUAUCUC [C12U A47G G53A U60G A75G], the self-cleavage worked out at 0.98.
As for UAACAGGGGGCUACAGCAGAAGCGUCCACGUCUCAGCCCCUGUCAGAUUCUGGUGAAUCAGCGAAUCCUGCAGUAUACCUC [C12U U26C G33U U60A U67C U72A U78C], the self-cleavage amounted to 0.05.
In the case of UAACAGGGGGCUACAGCAGAAGCGUUCACGCCGCAGCUCCUGUCGGAUUCUGGUGAAUCUGCGAAUUCUGCUGUAUAUCUC [C12U U31C C38U A45G], the self-cleavage amounted to 0.57.
UAACAGGGGGCUACAGCGGAAGCGUUCACGUCGCAGCCCCUGUCAGAUUCUGGUGAAUCUGCGAACUCUGCUGUAUAUCUC [C12U A18G U66C]: the self-cleavage is 0.32.
Take UAACAGGGGGCCCCGGCAGAAGCGUUCACGUCGCAGCCCCUGUCAGAUUCUGGUGAAUCCGCGAAUUCUGCUGUAUAUCUC [A13C A15G U60C]: the self-cleavage came to 0.46.
As for UAACAGGGGGCCCCAGCAGGAGCGUUCACGUCGCAGCCCCUGUCAGAUUCUGGUGUAUCUGUGAAUUCUGCUGUAUAUCUC [A13C A20G A56U C62U], the figure is 0.23.
